# Measured values as given in the RNAGym collection of RNA variant scans (doi:10.7554/elife.90254).
# The source gives no read counts; variants with many changes may rest on few reads.
# B1: LINE1-mini (parent)
# chain: GGCAGAGCUCAACACAGCGUGGCAAAGUGGCUGUGGCUAGACUGCC
# Variants of: B1
# Experiment: self-cleavage, relative activity (ratio to wild type); higher = more cleavage; in vitro, sequencing; the parent is a self-cleaving ribozyme
row,Variant,self-cleavage
1,G5U A6G G22U A25G G36U G44U,0.02
2,C8G C10G G17U C18G,0.02
3,C8U U28C G35A C37U,0.02
4,A4G G5U C10U,0.03
5,C10U A16G C31U,0.07
6,A4C C8G C31U A39G,0.11
7,G7C G21C G30U G35C C46G,0.02
8,G5A A16C G17A C23A,0.01
9,A4C C18G G40U C46A,0.04
10,A16C G35C A41C,0.02
11,A14C U20A C31U,0
12,C13A G27A G33U,0.02
13,C23G A25U U32G U34G C45G,0.01
14,A11U C13A C15U G36U A41U C42G,0.01
15,C15A C18A A26G U38A C45G,0.01
16,A6U G7U G19U G21U,0.04
17,C23A C31U G44A,0.16
18,C10A G33A C42A G44C,0.06
19,A25U A26U U28A G40A,0.01
20,A16G A24C A26U,0.02
21,A12C C18G G44A C45U C46A,0.02
22,G17A C23A G40C,0.04
23,A12U A16C G30U G44U,0
24,G1A A4G G7A G33C,0.28

row,Variant,self-cleavage
1,G7C C8G A26G U28A,0.25
2,A6U A12U A14G G17A G40U,0.02
3,A16G G30A G36C,0.06
4,A14U G29U A39G,0.06
5,A11C C15U C46U,0.07
6,C15A G33C G40A,0.04
7,G7U C15U G19A G33U,0.17
8,G2A G5U C10A C13U U32C,0.03
9,A6U U9G U20C G21A,0.05
10,G21U G33A A39C,0.07
11,G1A G19U G22A A24G,0.27
12,C10G C18G U28C U32G C45G,0
13,C8G A11G A16G G22C,0.02
14,A4G G29U C42U,0.08
15,C37G U43C C46G,0.02
16,C23U G33C C45A,0.03
17,A25U G27C C45U,0.16
18,A4G A11U G29C,0.03
19,C10A G22C G33A,0.03
20,G19A G29U G35U U38G,0.03
21,G27U G35C A41U,0.08
22,C3G A6G A12G C13A A41G,0.01
23,G1C C10G A26C G27A,0
24,C8U A24C U43A C46A,0.04

row,Variant,self-cleavage
1,C13G U28C G40U C46U,0.02
2,A14U C31U A39U G40C,0.02
3,C3U G35U G36U C42A,0.31
4,C8U G19U G22U,0.03
5,C13G C18A G29U,0.22
6,A6U G21U C23U G40U,1.26
7,C15G A26C U28G,0.02
8,C3A A4G C31U G44U,0.02
9,U20A G21U U38A,0.11
10,G7A C8G A12G C37A,0
11,C15U G22C C23A G29C,0.81
12,C3A U20A A26G U34C G35C,0.14
13,G5A U34A G40U,0.05
14,C3G C13U U20C G29C,0.08
15,A4U C15A G22A U32A,0.03
16,G2C G30U C42U,0.05
17,C8U A26U C37G A41G,0.07
18,C13G U20C G35A C42G,0.04
19,G17U U20C A39U,0.21
20,C3G A4C G19C C23A C42A,0.34
21,G19C G21A C23A U32A G40C,0.03
22,G5U U9C C10U A11G G29U G33U,0.02
23,C18A A24U G36A A39U,0.01
24,G5A C23G C31A G33U,0.08

row,Variant,self-cleavage
1,U9G C13U C46A,0.14
2,C18A G33A A39G,0.05
3,A4C U20G C37G,0.46
4,C10G G35U C37U C45G,0.01
5,G21C U28G U32G,0.29
6,A11C G29U U32A U34C C45A,0.01
7,U28C G30C G33C C46U,0.05
8,A16U G19A G27A G35A U38A U43C,0.03
9,G5U G17C C23A A25C A41G,0.01
10,A11U C15A G22C G35U G40A A41C,0
11,A16C G19C A26U,0.45
12,G7U C15U C23G C31A,0.03
13,A11C A41U U43G,0
14,U9G G40C U43C C45G,0.04
15,G1C A14U C45U,0.04
16,A12G G30U A41U,0.02
17,A4U U28G G44A,0.15
18,C10A G36C G40A,0.06
19,G5U U9G C18G G35A C42A,0.06
20,G2U G17C C23U C42A,0.04
21,G33A G36C C37U C42G,0.02
22,C8A C10A A39U,0
23,A6G A24G G27U G36C C37A,0.12
24,G1A G27U G33U U34G,0.09

row,Variant,self-cleavage
1,G30C G36U A41U,0.16
2,C13A A14C A16U C45G,0.17
3,C3U C8U G19U G36A,0.12
4,C23U G30A C42U,0.13
5,G2A U34C U38A,0.21
6,C10G A12G C15U G17U A24G G29A G40A C45A,0
7,C8A G17U A24C,0.5
8,U9G C13A G30A C37G,0.11
9,G2U U9C C18U C23G C31A,0.01
10,C10A C15U G29U C46A,0.04
11,G2C U9A G17A,0.06
12,A14G G21A U43C,0.21
13,C23A A24G G29C C42A G44A,0.1
14,C8G A25U G35C C45U,0.02
15,G1A U9G U20C C45A,0.09
16,G1C C10U G17U G27C U43A C45G,0.02
17,A12U G27U U32G G35C,0.01
18,A14C A24U G30C C42A G44A,0.1
19,G7A C10G G21U,0.02
20,A4G G7U A12C C37U,0.04
21,G7U C10A A14U C15A G19U C31U,0.03
22,G1U A11C A25G C37G C45A,0
23,C10U A12C G19A U38A,0.01
24,G1A A11G C13U G29C G35A A39G C45U,0.06

row,Variant,self-cleavage
1,G2U C31G C37A A39U,0.1
2,C15U G19U A41U,0.03
3,G29U U32G G40A,0.13
4,A12G G27U G33U A39G,0.11
5,G2A G5A C13A C15A A26C,0.59
6,C18A C31A G33U G35U C46A,0.09
7,U20A G30A U32C,0.05
8,C10A C18A A39G,0.02
9,U9G G17C G36U,0.02
10,A4G C8A G33U,0.17
11,C13A A16U C18U G19U G22C C23A C45U,0.04
12,G1C G2A C18U G29U,0.09
13,G7U C15A C18G U38C A41U,0.25
14,G27C C37G C45G,0.02
15,A6U A12G C13A,0.1
16,C3G U38G G40U,0.05
17,A11U C18A U28A G30U U38C,0.02
18,U9C G33U A41G G44C C46U,0.01
19,C3U U20G G27U G30U C46A,0.62
20,G27U G30U C45A,1.31
21,A4C A16U G29C,0.28
22,C8A C13U G27U U43C,0.22
23,C13G G17U A25G,0.02
24,G21U G30A U32G,0.29

row,Variant,self-cleavage
1,G17U A26G U28A,0.12
2,G1U G2A A12G,0.03
3,A4C U32A C37A C42A,0.07
4,G22A G29C G44A C45U,0.08
5,G22C G33A G40A,0.06
6,G27A C37U A39G,0.01
7,A4C C13G A24U C42A,0.01
8,A4C C10A G19U C23U G40A,0
9,U28C U38C C42G C45A,0.14
10,C13U C37U G40C,0.05
11,G7C A24C C42A,0.04
12,A6C C10A A14U G17C G22A A24C,0.02
13,C13U C31G C37G,0.01
14,A16G U28G U43A C45G,0.03
15,G27C G36C A41C,0.05
16,A4C G7C A25U G33U G40A,0.22
17,U20G G33A G36U C45U,0.04
18,C3U C10A G30C C37G,0.01
19,G1U A4C A11G G22A,0.04
20,G35A C37A G40C G44U,0.02
21,A6U G7C U34A A39C,0.33
22,C10G A12C C31U C37U C42U,0
23,G5A A6C A11U A16G G17U G19A G21U A25U G27U,0.02
